Measured values published in PubChem BioAssay AID1159614 (National Center for Advancing Translational Sciences (NCATS), 2016).
Screen size: about 45,000 compounds; about 65 (0.1%) were called active. The call rests on the fitted dose curve; in most records, active means well fitted activation curve with a large enough effect; inconclusive means small, poorly fitted or top-dose-only effect; inactive means no such curve, though single readings can be large or run the other way. This is one part of the list.

Each compound was assayed against Galactocerebrosidase (Homo sapiens) (UniProt P54803) (assay: A Novel Cell-Based Assay to Identify Small Molecules for B -Galactocerebrosidase). Settings: 145M-Twi-hGALC-G270D cells (Twitcher mouse brain line with human GALC G270D), HMU-beta-Gal fluorescence, 48 h; series mostly up to 57.5 µM; activation: at the top concentration.
UniProt P54803, sequence (P54803 whole entry, looked up): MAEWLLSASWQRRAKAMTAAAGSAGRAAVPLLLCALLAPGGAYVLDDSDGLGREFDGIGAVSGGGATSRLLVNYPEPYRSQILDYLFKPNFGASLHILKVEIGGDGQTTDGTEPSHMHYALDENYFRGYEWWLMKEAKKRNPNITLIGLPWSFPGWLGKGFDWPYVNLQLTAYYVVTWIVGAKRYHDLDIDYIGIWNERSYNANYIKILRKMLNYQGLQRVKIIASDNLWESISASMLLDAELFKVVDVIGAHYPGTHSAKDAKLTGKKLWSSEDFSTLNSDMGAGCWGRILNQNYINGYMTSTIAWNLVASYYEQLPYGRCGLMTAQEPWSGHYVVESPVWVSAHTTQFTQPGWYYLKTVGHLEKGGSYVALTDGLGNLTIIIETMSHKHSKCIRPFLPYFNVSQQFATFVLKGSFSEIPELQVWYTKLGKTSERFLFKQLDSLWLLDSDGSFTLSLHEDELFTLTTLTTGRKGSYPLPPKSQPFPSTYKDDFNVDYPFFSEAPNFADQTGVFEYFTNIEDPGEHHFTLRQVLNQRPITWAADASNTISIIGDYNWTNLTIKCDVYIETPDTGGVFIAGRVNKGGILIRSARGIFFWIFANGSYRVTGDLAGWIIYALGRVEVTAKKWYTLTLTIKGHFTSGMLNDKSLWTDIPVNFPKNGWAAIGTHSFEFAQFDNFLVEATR
Outline: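 Fluorogenic HMU-b-Gal hydrolysis (0.1 mM final, pH 5.2 citrate-phosphate with 1 mg/mL sodium taurocholate; carbonate stop buffer) measures mutant GALC activity after compound treatment of live 145M-Twi Twitcher brain cells stably carrying human GALC-G270D, with wild-type GALC line alongside; activation sought.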
Further: nearly all actives have a fitted effect of over 65% in size.
Potency means the concentration at half of the fitted maximal effect.
Wherever activation is given: 0% is about no effect.

| Structure (SMILES) | activation | Potency |
| --- | --- | --- |
| Cc1c(C(=O)NCc2ccccc2Cl)sc2nc[nH]c(=O)c12 | inactive: -1.29% |  |
| Cc1ccc2c(=O)c(C(=O)c3ccc(F)cc3)cn(CC(=O)NCCc3ccccc3)c2n1 | inactive: 0.646% |  |
| CCOCCCNC(=O)C(=O)Nc1c2c(nn1-c1ccc(OC)cc1)CSC2 | inactive: -5.56% |  |
| CCOc1ccc(C(=O)Nc2ccc3oc(-c4cccnc4)nc3c2)cc1 | inactive: -19.6% |  |
| CCC12CN3CC(CC)(CN(C1)C3c1cc(Br)ccc1OC)C2=O (stereo unspecified) | inactive: -14.3% |  |
| CCn1cc(C(=O)NCc2ccc(C)cc2)c(=O)c2cc(S(=O)(=O)N3CCc4ccccc4C3)ccc21 | inactive: -3.06% |  |
| Cc1nc(-c2ccc(S(=O)(=O)N3CCN(c4ccc(F)cc4)CC3)cc2)co1 | inactive: -36.9% |  |
| CNC(=O)c1cnn(-c2nc(N)c3ncn([C@@H]4O[C@H](CO)[C@@H](O)[C@H]4O)c3n2)c1 | inactive: -20.6% |  |
| O=C(Nc1c(C(=O)N2CCN(c3ccccc3F)CC2)oc2ccccc12)c1ccccc1F | inactive: -1.48% |  |
| O=C(CSc1nc2ccncc2[nH]1)Nc1ccccc1C(F)(F)F | inactive: 5% |  |
| Cc1csc2nc(COC(=O)CNC(=O)c3ccccc3Cl)cc(=O)n12 | inactive: -23.3% |  |
| Cc1ccc(-n2nc3c(=O)n(CCCC(=O)NCc4ccccc4F)nc(C)c3c2C)cc1 | inactive: -22.3% |  |
| CN1CCN(CCCNC(=O)c2ccc3nc(Cc4ccccc4)oc3c2)CC1 | inactive: -10.1% |  |
| O=C(CN1CCCN(Cc2ccc(F)cc2)S1(=O)=O)NCc1ccccc1Cl | inactive: -11% |  |
| Cc1ccc(Cn2c(CNC(=O)c3cccc(C)c3)nc3ccccc32)cc1 | inactive: -9.21% |  |
| COc1ccccc1-c1nnc(C2CCN(C(=O)c3ccc(Cl)cc3)CC2)o1 | inactive: -20.2% |  |
| COc1cccc2c1Oc1ncccc1N(C(=O)CCC(=O)NCc1ccc(C)cc1)C2 | inactive: -1.35% |  |
| N#Cc1ccccc1NC(=O)c1cnc(N2CCOCC2)c2ccccc12 | inactive: 0.774% |  |
| CCc1ccc(N(C)S(=O)(=O)c2ccc3[nH]cc(C(=O)NCC4CCCO4)c(=O)c3c2)cc1 (stereo unspecified) | inactive: -5.41% |  |
| CC(=O)N1CCOc2cc(S(=O)(=O)N(C)Cc3ccccc3)c(Cl)cc21 | inactive: 3.72% |  |
| CCC(=O)N1CCc2cc(Br)cc(S(=O)(=O)CCC(=O)NCc3ccc(F)cc3)c21 | inactive: -6.38% |  |
| CCN1C(=O)C(Cc2nc3ccccc3c(=O)n2-c2ccccc2)c2cc(Br)ccc21 (stereo unspecified) | inactive: -42.5% |  |
| Cc1oc(-c2ccc(C(=O)Nc3ccccc3F)cc2)nc1COc1ccccc1 | inactive: -15.2% |  |
| COc1ccc(C)cc1NC(=O)CSc1nc(=O)n(Cc2ccccn2)c2c1CCC2 | inactive: -23.1% |  |

| Structure (SMILES) | activation | Potency |
| --- | --- | --- |
| Cn1nnnc1SCCCNCc1cccc(OCc2ccccc2Cl)c1 | inactive: -15.3% |  |
| CCC(=O)c1c(O)cc(O)cc1O | inactive: -6.79% |  |
| CCc1ccc2nc(N3CCN(C(=O)C4CC4)CC3)sc2c1 | inactive: -2.41% |  |
| CCOc1ccccc1NC(=O)Cn1c2ncccc2c(=O)n1-c1ccc(C)c(C)c1 | inactive: -14.2% |  |
| COc1ccc(CNc2oc(-c3ccc(COc4ccc(OC)cc4)o3)nc2C#N)cc1 | inactive: -7.97% |  |
| Cc1oc2c(c(C)cc3oc(=O)c(CC(=O)NCc4ccc(F)cc4)c(C)c32)c1C | inactive: -3.84% |  |
| CC(=O)N1CCCc2cc(S(=O)(=O)Nc3ccc(C)c(F)c3)ccc21 | inactive: -13.4% |  |
| CCOc1ccc(NC(=O)CN2C(=O)C3(SCC(=O)N3c3ccc(F)cc3)c3ccccc32)cc1 (stereo unspecified) | inactive: -17.1% |  |
| Cc1cccc(C)c1NC(=O)CN1C(=O)c2cccc3cccc1c23 | inactive: -9.65% |  |
| CCc1nn(CC(=O)N2CCN(c3cccc(C(F)(F)F)c3)CC2)c(=O)c2cccn12 | inactive: -16.5% |  |
| CC(=O)N1CCc2cc(S(=O)(=O)NC(Cc3ccccc3)C(=O)Nc3ccc(Cl)cc3)ccc21 (stereo unspecified) | inactive: -11.7% |  |
| Cc1cc(C)c(OCC(=O)N(Cc2cccc(F)c2)Cc2ccco2)c(C)c1 | inactive: -6.84% |  |
| CCOC(=O)c1ccc(NS(=O)(=O)c2ccc3[nH]c4c(c3c2)CCCCC4)cc1 | inactive: -36.2% |  |
| Cc1cccc(NC(=O)Cn2c(=O)oc3cc(S(=O)(=O)NC4CCCC4)ccc32)c1 | inactive: -24.2% |  |
| COC(=O)CCNC(=O)N1CCN(c2nnc(C)c3c(C)n(-c4ccc(Cl)cc4)nc23)CC1 | inactive: -18.1% |  |
| COc1ccc(-c2cn3nc(SCC(=O)Nc4ccc(C)c(Cl)c4)ccc3n2)cc1 | inactive: -9.1% |  |
| COC(=O)c1ccc(NC(=O)CN2C(=O)c3cccc4cccc2c34)cc1 | inactive: -13.7% |  |
| Cc1ccc(NC(c2ccc(Cl)cc2)c2nnc(-c3cccc(F)c3)o2)cc1C (stereo unspecified) | inactive: -7.49% |  |
| Cc1cc(C)c(NC(=O)COc2ccc3c(C)cc(=O)oc3c2)c(C)c1 | inactive: 2.55% |  |
| O=C(CSc1nc2c([nH]c3ccccc32)c(=O)n1-c1ccc(Cl)cc1)N1CCCC1 | inactive: -9.24% |  |
| O=S(=O)(NCC(Nc1ccc(Cl)cc1)c1ccccc1)c1ccccc1 (stereo unspecified) | inactive: -9.45% |  |
| CCN(CCCNC(=O)c1cc(Nc2ccccc2OC)nc2ccccc12)c1cccc(C)c1 | inactive: -31.7% |  |
| COc1ccc(-c2noc(C3CC(=O)N(c4ccccc4)C3)n2)c(OC)c1 (stereo unspecified) | inactive: -10.4% |  |
| COc1ccc(OC)c(CCNC(=O)c2c3c(nc4ccccc24)C(=O)N(C2CCCCC2)C3)c1 | inactive: -13.9% |  |

| Structure (SMILES) | activation | Potency |
| --- | --- | --- |
| COc1ccc(NC(=O)Cn2nc(C)c3nn(-c4ccc(Cl)cc4)c(C)c3c2=O)cc1 | inactive: -7.86% |  |
| COc1cccc(Nc2nc3cc(Cl)c(Cl)cc3nc2-n2nc(C)cc2C)c1 | inactive: -9.35% |  |
| CCOc1ccc(S(=O)(=O)c2cn(Cc3cc(C)ccc3C)c3ccc(OCC)cc3c2=O)cc1 | inactive: -13.5% |  |
| CCOC(=O)Cn1c(=O)oc2cc(S(=O)(=O)N3CCN(c4ccc(C(C)=O)cc4)CC3)ccc21 | inactive: -2.15% |  |
| CCOc1ccc(-c2nc(Cn3c(=O)cc(C)c4c(C)nn(-c5ccc(C)cc5)c43)c(C)o2)cc1 | inactive: -6.1% |  |
| CCc1c(C)sc2c1CCN(C(=O)Nc1ccc(F)c(Cl)c1)C2c1ccc(F)cc1 (stereo unspecified) | inactive: -15.1% |  |
| COc1ccc(CCNC(=O)CCn2c(=O)c3ccccc3n(CC(=O)Nc3ccc(C)cc3C)c2=O)cc1OC | inactive: -5.26% |  |
| O=C(Nc1ccccc1)C1CCN(S(=O)(=O)c2ccc3[nH]c4c(c3c2)CCCCC4)CC1 | inactive: -7.15% |  |
| COc1ccccc1NC(=O)C1=C(C)Nc2nc(SCc3ccccc3)nn2C1c1cccnc1 (stereo unspecified) | inactive: -1.65% |  |
| CC1CCN(c2oc(/C=C/c3ccc(F)cc3)nc2C#N)CC1 |  | active: 25.1 µM |
| COc1ccccc1CNC(=O)c1cnc(N2CCCC2)nc1C | inactive: -6.01% |  |
| CCOc1ccc(NC(=O)c2cc(S(=O)(=O)N3CCOCC3)ccc2F)cc1 | inactive: -13.3% |  |
| CCCOC(=O)c1ccc(Cn2nnc3sc4c(c3c2=O)CCC(C)C4)cc1 (stereo unspecified) | inactive: -9.92% |  |
| COc1ccccc1N(CC(=O)NCCSCc1cccc(Cl)c1)S(C)(=O)=O | inactive: -9.11% |  |
| O=C(C1CCC(Cn2c(=O)c3sccc3n(Cc3ccccc3F)c2=O)CC1)N1CCCCC1 (stereo unspecified) | inactive: -9.96% |  |
| CCOc1ccc(NC(=O)c2cc3c(=O)n(Cc4cccs4)ccc3nc2C)cc1 | inactive: -13.6% |  |
| CN(C)C(=O)Nc1ccc(Cl)c(Cl)c1 | inactive: -12.1% |  |
| O=C(Nc1ccc(Cl)cc1)N1CCN(c2ccc3nnc(-c4ccccc4)n3n2)CC1 | inactive: -35.3% |  |
| Cn1c(=O)c2c(c3ccccc31)OC(=O)CC2c1cccc(F)c1 (stereo unspecified) | inactive: -13.8% |  |
| CC(=O)N1C[C@H](O)C[C@H]1C(=O)O | inactive: -14.6% |  |
| Cc1cc(C)c(NC(=O)c2ncoc2-c2ccco2)c(C)c1 | inactive: -13.5% |  |
| CC(C)NC(=O)C1CCN(C(=O)c2cc3sccc3n2Cc2ccc(Cl)cc2)CC1 | inactive: -8.13% |  |
| CCCCNC(=O)C1CCN(S(=O)(=O)c2ccc3c(ccn3CC)c2)CC1 | inactive: -10.3% |  |
| CCN(CC)CCSc1nnc2c3cc(F)ccc3n(C)c2n1 | inactive: -13.5% |  |

| Structure (SMILES) | activation | Potency |
| --- | --- | --- |
| O=S(=O)(O)c1ccc2nc(-c3ccccc3)[nH]c2c1 | inactive: -16.9% |  |
| CC(NC(CCc1ccccc1)C(=O)O)C(=O)N1C(=O)N(C)CC1C(=O)O (stereo unspecified) | inactive: -9.37% |  |
| Cc1cc(C)cc(NC(=O)CSc2nnc(-c3cc4occc4n3C)n2-c2ccccc2C)c1 | inactive: -12.5% |  |
| COc1ccc2c(CNC3CCCCCC3)c(C(=O)O)n(Cc3cccc(F)c3)c2c1 | inactive: -0.302% |  |
| O=S(=O)(NCCc1csc2nc(-c3ccccc3)nn12)c1ccc(Cl)s1 | inactive: -2.59% |  |
| COc1ccc(-c2noc(CNS(=O)(=O)c3ccc(Br)cc3)n2)cc1OC | inactive: -10.9% |  |
| Cc1ccc(-c2noc(CN(C(=O)COc3cc(C)cc(C)c3C)C(C)C)n2)cc1 | inactive: -39.3% |  |
| Cc1ccc(CNCc2c(C(=O)O)n(Cc3ccc(C)cc3)c3cc(C)ccc23)cc1 | inactive: -0.0184% |  |
| CCOC(=O)c1c(C)[nH]c(CCC(=O)Nc2ccc(Cl)cc2C)c1C | inactive: -10.6% |  |
| COC(=O)c1ccc(OC)c(CN2C(=O)N(c3ccc(C(C)=O)cc3)S(=O)(=O)c3ccccc32)c1 | inactive: 9.99% |  |
| Cc1ccc2oc(=O)c3cnn(CC(=O)N4CCN(c5ccccc5)CC4)c3c2c1 | inactive: -10.1% |  |
| COC(=O)c1c(NC(=O)CS(=O)(=O)c2ccc(C)cc2)sc2c1CCCC2 | inactive: -6.31% |  |
| Cc1c(Cl)cccc1NC(=O)CCN1C(=O)c2ccccc2Sc2ncccc21 | inactive: -13.6% |  |
| CCC(Sc1nc2ccccc2c2nc(-c3ccccc3)nn12)C(=O)Nc1cccc(OC)c1 (stereo unspecified) | inactive: -11.3% |  |
| O=C(Nc1ccc(F)cc1F)c1cc2nc(-c3ccco3)cc(C(F)(F)Cl)n2n1 | inactive: -11.6% |  |
| CCN(CC)C(=O)c1cc(-c2ccc(Cl)cc2)on1 | inactive: -21.5% |  |
| O=C(Nc1cccc(Cl)c1)c1ccc(F)c(S(=O)(=O)N2CCC3(CC2)OCCO3)c1 | inactive: -6% |  |
| CCN(C(=O)Cn1nnc2sc(-c3ccccc3)cc2c1=O)c1cccc(C)c1 | inactive: -11.1% |  |
| Cc1cc(NC(=O)CCNS(=O)(=O)c2ccc3c(c2)oc(=O)n3C)ccc1Br | inactive: -4.25% |  |
| CCC(C)NC(=O)CSc1nc2n[nH]c(C)c2c(=N)n1-c1ccc(C)c(Cl)c1 (stereo unspecified) | inactive: -10.4% |  |
| Cc1ccc2c(=O)cc(C(=O)Nc3ccc(S(=O)(=O)N(C)Cc4ccccc4)cc3)oc2c1 | inactive: 5.83% |  |
| Cc1ccc(CNC(=O)CN(c2ccc(C)cc2)S(=O)(=O)c2c(C)nn(C)c2C)cc1 | inactive: -5.29% |  |
| CCN(CC)S(=O)(=O)c1ccc2c(c1)c(=O)c(C(=O)N1CCN(c3cccc(C)c3)C(C)C1)cn2C (stereo unspecified) | inactive: -13.4% |  |
| COC(=O)c1cnn2c(C)c(Cc3c(C)cc(C)cc3C)c(C)nc12 | inactive: -7.5% |  |
